# Assay results published in the supplement of paper PMC8728848.
# The other results are listed elsewhere or left out.
# B1: Pbx2 (Cryptococcus neoformans) (protein)
# chain: AVSPLPSSTELVFYSQKRRRRRICSTATGSLSTPDPTRMTSDPYKRVGMRFSSVPRLLITFLSLLLLVSAAPPCVRFADYDSINQMFIDGGPGTKVLLCPNRLYRLSGPIIFTAADQEIATYGYPTGSERAVLRVEGRNTATAIQGDCRRCARVSVKNLVVDGNRKKLGRMRDFQLATGLVVLGGNEGQSIQNSWIKNPRGFTAIHIREGDKLQCSGARVEKNEIGPVGEEYDPEKDGDDPEMSPLGRPLADGVSIACRDSFIRDNTFRDNTDAAIVVYCSPGTLIHANHIFAQSLSAMAGILMVDSTPFNGDYTGTVVRSNIIDAVSRTIRVGIGIGPTVWSDDTETILTGGSVIGNGLKGRYMGYGIAAAGLKQWTIKDNWDEAKHEGRKSARCFDEPVNPDPIGLLYNRPTMEDCTVQSGFADHDFQYLVCIDGLYDKTNPPKHDPAPLAHDPSPTNAQEDNTVQQDGGDSKSKSIEQPREASDIEAEPSVEKMFSTGSEMMDDVLEHSHQRMHEVIDHLSRRIDILGAASAGKGSGDSKISEVLDPAMSSHLEKLQRKIEHLEFSLRSQIETAIQLRSAIQGWDQEMALVTDWEYDILLDVRHKLELSSYPHDQPLDPRLMRGQSYLNNEAVLVDDHSHPSLEGENLRAMSDRARLNANEEA
# Columns and labels:
# Assay in all cases: glycan array binding signal (z-score within array); higher = stronger binding
# Conditions in all cases: glycan notation: IUPAC condensed, linker removed
# [1] = target: GlcNAc(b1-2)Man(a1-3)[GlcNAc(b1-2)Man(a1-6)]Man(b1-4)GlcNAc(b1-4)GlcNAc
# Procedure, shortened: (§1)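 Arrays were curated from the Consortium for Functional Glycomics database, 3228 in total, and kept only where the protein sequence was available. Binding is expressed as a within-array Z-score. This score was averaged across arrays of the same protein sequence at different concentrations or buffers and across linkers, and negative values can be read as non-binding.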
# [2] = target: GlcNAc(b1-2)Man(a1-3)[GlcNAc(b1-2)Man(a1-6)]Man(b1-4)GlcNAc(b1-4)[Fuc(a1-6)]GlcNAc
# Procedure, shortened: as §1
# [3] = target: GlcNAc(b1-2)Man(a1-3)[GlcNAc(b1-4)][GlcNAc(b1-2)Man(a1-6)]Man(b1-4)GlcNAc(b1-4)GlcNAc
# Procedure, shortened: as §1
# [4] = target: GlcNAc(b1-2)Man(a1-3)[GlcNAc(b1-4)][GlcNAc(b1-2)Man(a1-6)]Man(b1-4)GlcNAc(b1-4)[Fuc(a1-6)]GlcNAc
# Procedure, shortened: as §1
# [5] = target: GlcNAc(b1-2)[GlcNAc(b1-4)]Man(a1-3)[GlcNAc(b1-2)Man(a1-6)]Man(b1-4)GlcNAc(b1-4)GlcNAc
# Procedure, shortened: as §1
# [6] = target: GlcNAc(b1-2)[GlcNAc(b1-4)]Man(a1-3)[GlcNAc(b1-4)][GlcNAc(b1-2)Man(a1-6)]Man(b1-4)GlcNAc(b1-4)GlcNAc
# Procedure, shortened: as §1
# [7] = target: GlcNAc(b1-2)[GlcNAc(b1-4)]Man(a1-3)[GlcNAc(b1-4)][GlcNAc(b1-2)[GlcNAc(b1-6)]Man(a1-6)]Man(b1-4)GlcNAc(b1-4)GlcNAc
# Procedure, shortened: as §1
# [8] = target: GlcNAc(b1-2)[GlcNAc(b1-4)]Man(a1-3)[GlcNAc(b1-4)][GlcNAc(b1-2)[GlcNAc(b1-6)]Man(a1-6)]Man(b1-4)GlcNAc(b1-4)[Fuc(a1-6)]GlcNAc
# Procedure, shortened: as §1
# [9] = target: GlcNAc(b1-2)[GlcNAc(b1-6)]Man(a1-6)[GlcNAc(b1-2)Man(a1-3)]Man(b1-4)GlcNAc(b1-4)GlcNAc
# Procedure, shortened: as §1
# [10] = target: GlcNAc(b1-2)[GlcNAc(b1-6)]Man(a1-6)[GlcNAc(b1-2)Man(a1-3)]Man(b1-4)GlcNAc(b1-4)[Fuc(a1-6)]GlcNAc
# Procedure, shortened: as §1
# [11] = target: GlcNAc(b1-2)[GlcNAc(b1-6)]Man(a1-6)[GlcNAc(b1-4)][GlcNAc(b1-2)Man(a1-3)]Man(b1-4)GlcNAc(b1-4)GlcNAc
# Procedure, shortened: as §1
# GlcNAc(b1-3)Fuc = target: GlcNAc(b1-3)Fuc
# Procedure, shortened: as §1
# GlcNAc(b1-3)Gal = target: GlcNAc(b1-3)Gal
# Procedure, shortened: as §1
# [12] = target: GlcNAc(b1-3)Gal(b1-3)GalNAc
# Procedure, shortened: as §1
# GlcNAc(b1-3)Gal(b1-4)Glc = target: GlcNAc(b1-3)Gal(b1-4)Glc
# Procedure, shortened: as §1
# [13] = target: GlcNAc(b1-3)Gal(b1-4)GlcNAc
# Procedure, shortened: as §1
# [14] = target: GlcNAc(b1-3)Gal(b1-4)GlcNAc(b1-2)Man(a1-3)[GlcNAc(b1-3)Gal(b1-4)GlcNAc(b1-2)Man(a1-6)]Man(b1-4)GlcNAc(b1-4)GlcNAc
# Procedure, shortened: as §1
# [15] = target: GlcNAc(b1-3)Gal(b1-4)GlcNAc(b1-2)Man(a1-3)[GlcNAc(b1-3)Gal(b1-4)GlcNAc(b1-2)Man(a1-6)]Man(b1-4)GlcNAc(b1-4)[Fuc(a1-6)]GlcNAc
# Procedure, shortened: as §1
# [16] = target: GlcNAc(b1-3)Gal(b1-4)GlcNAc(b1-2)[GlcNAc(b1-3)Gal(b1-4)GlcNAc(b1-6)]Man(a1-6)[GlcNAc(b1-3)Gal(b1-4)GlcNAc(b1-2)Man(a1-3)]Man(b1-4)GlcNAc(b1-4)GlcNAc
# Procedure, shortened: as §1
# [17] = target: GlcNAc(b1-3)Gal(b1-4)GlcNAc(b1-3)Gal(b1-4)GlcNAc
# Procedure, shortened: as §1
# [18] = target: GlcNAc(b1-3)Gal(b1-4)GlcNAc(b1-3)Gal(b1-4)GlcNAc(b1-2)Man(a1-3)[GlcNAc(b1-3)Gal(b1-4)GlcNAc(b1-3)Gal(b1-4)GlcNAc(b1-2)Man(a1-6)]Man(b1-4)GlcNAc(b1-4)GlcNAc
# Procedure, shortened: as §1
# [19] = target: GlcNAc(b1-3)Gal(b1-4)GlcNAc(b1-3)Gal(b1-4)GlcNAc(b1-2)Man(a1-3)[GlcNAc(b1-3)Gal(b1-4)GlcNAc(b1-3)Gal(b1-4)GlcNAc(b1-2)Man(a1-6)]Man(b1-4)GlcNAc(b1-4)[Fuc(a1-6)]GlcNAc
# Procedure, shortened: as §1
# [20] = target: GlcNAc(b1-3)Gal(b1-4)GlcNAc(b1-3)Gal(b1-4)GlcNAc(b1-2)[GlcNAc(b1-3)Gal(b1-4)GlcNAc(b1-3)Gal(b1-4)GlcNAc(b1-6)]Man(a1-6)[GlcNAc(b1-3)Gal(b1-4)GlcNAc(b1-3)Gal(b1-4)GlcNAc(b1-2)Man(a1-3)]Man(b1-4)GlcNAc(b1-4)[Fuc(a1-6)]GlcNAc
# Procedure, shortened: as §1
# [21] = target: GlcNAc(b1-3)Gal(b1-4)GlcNAc(b1-3)Gal(b1-4)GlcNAc(b1-3)Gal(b1-4)GlcNAc(b1-2)Man(a1-3)[GlcNAc(b1-3)Gal(b1-4)GlcNAc(b1-3)Gal(b1-4)GlcNAc(b1-3)Gal(b1-4)GlcNAc(b1-2)Man(a1-6)]Man(b1-4)GlcNAc(b1-4)GlcNAc
# Procedure, shortened: as §1
# [22] = target: GlcNAc(b1-3)Gal(b1-4)GlcNAc(b1-3)Gal(b1-4)GlcNAc(b1-3)Gal(b1-4)GlcNAc(b1-2)Man(a1-3)[GlcNAc(b1-3)Gal(b1-4)GlcNAc(b1-3)Gal(b1-4)GlcNAc(b1-3)Gal(b1-4)GlcNAc(b1-2)Man(a1-6)]Man(b1-4)GlcNAc(b1-4)[Fuc(a1-6)]GlcNAc
# Procedure, shortened: as §1
# [23] = target: GlcNAc(b1-3)Gal(b1-4)GlcNAc(b1-3)Gal(b1-4)GlcNAc(b1-3)Gal(b1-4)GlcNAc(b1-2)[GlcNAc(b1-3)Gal(b1-4)GlcNAc(b1-3)Gal(b1-4)GlcNAc(b1-3)Gal(b1-4)GlcNAc(b1-6)]Man(a1-6)[GlcNAc(b1-3)Gal(b1-4)GlcNAc(b1-3)Gal(b1-4)GlcNAc(b1-3)Gal(b1-4)GlcNAc(b1-2)Man(a1-3)]Man(b1-4)GlcNAc(b1-4)[Fuc(a1-6)]GlcNAc
# Procedure, shortened: as §1
# [24] = target: GlcNAc(b1-3)Gal(b1-4)GlcNAc(b1-3)Gal(b1-4)GlcNAc(b1-3)Gal(b1-4)GlcNAc(b1-3)Gal(b1-4)GlcNAc(b1-2)Man(a1-3)[GlcNAc(b1-3)Gal(b1-4)GlcNAc(b1-3)Gal(b1-4)GlcNAc(b1-3)Gal(b1-4)GlcNAc(b1-3)Gal(b1-4)GlcNAc(b1-2)Man(a1-6)]Man(b1-4)GlcNAc(b1-4)GlcNAc
# Procedure, shortened: as §1
# [25] = target: GlcNAc(b1-3)Gal(b1-4)GlcNAc(b1-3)Gal(b1-4)GlcNAc(b1-3)Gal(b1-4)GlcNAc(b1-3)Gal(b1-4)GlcNAc(b1-2)Man(a1-3)[GlcNAc(b1-3)Gal(b1-4)GlcNAc(b1-3)Gal(b1-4)GlcNAc(b1-3)Gal(b1-4)GlcNAc(b1-3)Gal(b1-4)GlcNAc(b1-2)Man(a1-6)]Man(b1-4)GlcNAc(b1-4)[Fuc(a1-6)]GlcNAc
# Procedure, shortened: as §1
# [26] = target: GlcNAc(b1-3)Gal(b1-4)GlcNAc(b1-3)Gal(b1-4)GlcNAc(b1-3)Gal(b1-4)GlcNAc(b1-3)Gal(b1-4)GlcNAc(b1-2)[GlcNAc(b1-3)Gal(b1-4)GlcNAc(b1-3)Gal(b1-4)GlcNAc(b1-3)Gal(b1-4)GlcNAc(b1-3)Gal(b1-4)GlcNAc(b1-6)]Man(a1-6)[GlcNAc(b1-3)Gal(b1-4)GlcNAc(b1-3)Gal(b1-4)GlcNAc(b1-3)Gal(b1-4)GlcNAc(b1-3)Gal(b1-4)GlcNAc(b1-2)Man(a1-3)]Man(b1-4)GlcNAc(b1-4)[Fuc(a1-6)]GlcNAc
# Procedure, shortened: as §1
# [27] = target: GlcNAc(b1-3)Gal(b1-4)GlcNAc(b1-3)Gal(b1-4)GlcNAc(b1-3)GalNAc
# Procedure, shortened: as §1
binder,measurement,setting,value
B1,glycan array binding signal (z-score),[1],-0.115
same,glycan array binding signal (z-score),[2],-0.293
same,glycan array binding signal (z-score),[3],0.091
same,glycan array binding signal (z-score),[4],-0.242
same,glycan array binding signal (z-score),[5],-0.045
same,glycan array binding signal (z-score),[6],-0.524
same,glycan array binding signal (z-score),[7],0.057
same,glycan array binding signal (z-score),[8],-0.396
same,glycan array binding signal (z-score),[9],-0.473
same,glycan array binding signal (z-score),[10],-0.377
same,glycan array binding signal (z-score),[11],-0.434
same,glycan array binding signal (z-score),GlcNAc(b1-3)Fuc,-0.711
same,glycan array binding signal (z-score),GlcNAc(b1-3)Gal,-0.502
same,glycan array binding signal (z-score),[12],-0.436
same,glycan array binding signal (z-score),GlcNAc(b1-3)Gal(b1-4)Glc,-0.447
same,glycan array binding signal (z-score),[13],-0.435
same,glycan array binding signal (z-score),[14],-0.424
same,glycan array binding signal (z-score),[15],0.05
same,glycan array binding signal (z-score),[16],2.16
same,glycan array binding signal (z-score),[17],-0.336
same,glycan array binding signal (z-score),[18],3.17
same,glycan array binding signal (z-score),[19],-0.196
same,glycan array binding signal (z-score),[20],1.33
same,glycan array binding signal (z-score),[21],-0.049
same,glycan array binding signal (z-score),[22],-0.032
same,glycan array binding signal (z-score),[23],0.144
same,glycan array binding signal (z-score),[24],-0.241
same,glycan array binding signal (z-score),[25],-0.662
same,glycan array binding signal (z-score),[26],-0.071
same,glycan array binding signal (z-score),[27],-0.014
